Experimental data: the supplement of paper PMC10126150
Sequences with one replicate were seen in a single cluster, so their values are uncertain.

System: ATP
Test: switch fluorescence ratio, 500 uM ATP over buffer (Cy3 cluster intensity, sum of 5 cycles each) (fold (ratio)); higher = stronger signal-on switching upon ATP binding; sequences stand for … in TCGTCGGCAGCGTCAGATGTGTATAAGAGACAGTTTTTTTTTTTTTTTTTTTTTTTTT…TC
Conditions: aptamer strand: ATP DNA aptamer (quencher-CACCTGGGGGAGTATTGCGGAGGAAGG + anchor), 100 nM annealed; ATP concentration: 500 uM; one replicate
Procedure, shortened: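 Cy3-labelled switching-strand clusters on a modified Illumina MiSeq flow-cell were annealed to 100 nM quencher-labelled ATP aptamer, imaged in selection buffer, then imaged after 15 min with 500 uM ATP at 22 °C. Five buffer/ATP cycles ran, with NaOH stripping and re-annealing between them. The fluorescence ratio is summed target-cycle over summed buffer-cycle Cy3 intensity per cluster, averaged per switch-domain sequence. Clusters outside 100-1000 RFU were excluded.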
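Note: ATP exposure 15 min at 22 °C before imaging.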

Sequence	switch fluorescence ratio
ATTGTACATG	0.971
GACCCTGCTG	1.07
CAGGGTATAA	1.02
CGAGCTGCGT	1.02
CTCTTGATTC	1.04
TGTGCCTGG	0.975
CGATTGGGAA	1.01
AAGGCTGCTC	1.02
GCATGAAGGA	0.985
CGGTTGGAG	0.96
CGATACCTGA	1.05
ACTTAGTAGT	1.02
TTTTAACCAA	1.04
GGTCGTCATT	1.02
GCACGCGCTC	1.05
GAACATGGGG	1.01
ATAGGGCCTG	1.04
CGACCTTAAG	0.97
TAAACCGGGG	1.05
AGCTACTTAA	1.01
AATCTTGTTA	1
ACCGTTTTAG	1.04
GCAGGTTCCT	1.03
ATCTAGGAGA	1.03
GCCTAACGGG	0.99
GACAGGAGAT	0.988

Sequence	switch fluorescence ratio
TGTCTGGTCA	1
CAGTGCTGGA	1.02
CACGGAACT	1.14
GTAATGACTA	1.05
ACATACTTCA	1.36
AGCGCAACGC	1.09
AGGTCCCGGC	0.981
TATGTAAGCG	0.99
ACTGCGGCTC	1.09
GGGGGGTCAT	1.02
CGAGCCGCTC	1.04
GATGCCATGT	0.972
TTTCATCAGT	0.997
TCACTATATA	1.05
TCAGGAGCGA	1.15
ATAGGTTAGT	1.05
TAAAGGTAC	1.09
ATTGCGGCAA	0.926
ATCTACAGCG	1.03
TAGTCAGTTC	0.991
ATTGGGAT	0.999
ACAGGTGGCC	1.25
CCACGCGGCG	0.998
ATGGAATGTG	0.94
GAGCCGTAAA	0.985
TGGGCGACAC	1.02

Sequence	switch fluorescence ratio
GCCACACTCT	0.971
CGTTAGAAGT	0.998
GCACCGACGC	2.81
GGCGCCTAGA	1.03
TGCTTTCTCA	1.07
CCATGATTAT	0.966
TTGCGATCCG	1.01
TGAACGGCCA	0.992
GGCAACCGGG	1.05
CATTGACAGG	1.04
TTCCGTACGG	1.03
ATCTACACGG	1.04
ATATCCCAAT	1.13
CGAGAATAGG	1.01
AGAAACGCTT	1.04
TCACCACTTC	1.16
AGAAGGTAAC	1.35
TAATTGGTAC	1.09
CAATCAGATG	1.04
GGCATAAGCC	1.03
TCTCGTTATG	0.992
GGAGTTATTT	0.962
CGAGAGGTAA	0.973
AGGCACCATG	0.995
AACCCTAAAA	0.949
TTCAGTGGT	0.981

Sequence	switch fluorescence ratio
CACTATGGTC	0.925
ATACAAA	0.967
TGTATTACGA	0.946
TAAATTCGTT	1.03
AATTTACTTG	1.03
ATTTTCGGAA	1.01
AGCAAGGTGT	1.4
TCATGGCTGC	1.02
GAGCCGATTT	1.01
GTGTGACAAT	0.997
TGGGAAAGTA	1
AGCATACCG	1.05
GTTGCGCAGA	0.973
TGCGTTAGTT	0.963
GACAGGGACA	1.05
GAGATTAATG	0.997
TCCGCCCGAA	1.54
TTTTTGTA	0.97
TTCGGAGACG	0.95
ACCGTAATGA	1.23
GCTGTTCGCC	0.996
ACACCACGTG	1.13
TACTTTTAAT	1.04
CCCCACCGGC	1.02
ACGTGTAACA	0.997
ACGAGAATGG	1.05

Sequence	switch fluorescence ratio
AAAGATCGGG	0.965
TACCATATG	1.05
TGCAAGCAGG	1.01
ATACTTTCGT	0.95
CCTGATGGTG	1.25
GACGGACTGG	1.07
ATGAGGGTT	1.03
AATTAAGAGT	1
TCAGAGCTTT	0.979
GCAGGGGATG	0.97
GAAAGGTTGT	1.01
ACAATTGGAT	1.01
AATTCACAA	1.04
AATATCTTCG	1.07
CAGGTCAACA	0.992
TTTCCCGATC	1.05
TACGTTTGTT	1.01
GCTGATACAT	1
GTCACAGGTT	1.11
AGGCGGTCAC	1
CGCTTGACCG	0.987
TATTCTGAAG	0.989
GGCCTTGTT	0.996
AATCGCGTAT	0.966
CGTCGTCAGG	0.979
AGGTGCAAAC	1.09

Sequence	switch fluorescence ratio
ACGGTAATCG	0.999
CTAATGTTTG	0.986
CGGTTGTAAG	1.01
AGCAGCATGA	1.03
TGGGGGTA	1.01
ATTTGGAGGT	0.961
TTTACTGCCG	0.955
ACGGCATT	0.986
CTATTGACGG	0.97
AGGGAAAACG	0.994
TTTACTACAC	1.15
ACTGGACTT	1.21
GCTTTGGTCT	1.02
AGCAGGTAAT	1.02
GGACATGTTT	1.01
GATGTCAATT	1.01
TACTCCATCT	1.06
AGTTTAGAGA	1.01
CGAGTTTATA	0.982
CCCGCGGAGT	1.13
GCTCAATGGA	0.969
ACAAAACTAC	1.12
TTAGAAATG	1
GGATATAAGG	1.06
TGGTAAGTCT	0.992
GACTCACTGT	1.22

Sequence	switch fluorescence ratio
CGTATGTCAT	0.956
AGACGGATTG	0.952
TCAGAAAGAG	1.05
AGTGGCCCAC	1.02
ATCTGGTTGC	1.04
GATACTTGG	0.986
CGTGATTGCG	0.97
GCACATACGT	1.74
CCTTAGAATT	1.05
TTCGAGATTA	0.995
CAGGGGGCGG	0.966
AGGGTGGTCA	0.983
AGACAATTTC	1.03
AGCCCCTCTG	1.06
TCTCGCACTG	1.17
TTCTTGGTTC	1.06
GCGTTCATTT	1.01
ATATTTTCTG	0.968
TAAGAGAGCA	1.03
AAGTTGATAT	1
AATTAATAT	1.01
ACGAGGCTAT	3.85
AGAGGCGCAC	1.06
AGCGTTGTGA	1.02
GAAGATGTTC	1.02
AGGATTAAAA	0.96

Sequence	switch fluorescence ratio
GCTGGACTGC	0.89
TGATTACCTT	1.07
CTTGTGGTAG	0.958
TCGCGTCTAC	1.57
CTTCCCTAA	1.06
AGTTTAGCTG	0.945
GCTTTATTA	0.974
TAGGGGCTTA	1.02
AGACTGGAT	1.01
ACTCGGTTGA	1.06
CTCTACAGCG	0.995
GCATCGTCGT	0.964
GTTAAATTGT	1.06
TCACATCTAT	1.03
TTGTGCTGAT	0.985
TGCCGCGCTT	1.04
GGAGGCAAAT	1.09
CCCAAGGTTG	2.07
TCCATCTCAA	0.991
